From article PMC10386414 (Molecules, 2023) come the findings set out here.

Assay [1] addresses T1, human δ-opioid receptor (OPRD1) (Homo sapiens, UniProt P41143). Description: cell-based. The conditions noted are these: for Emax: CHO-K1, read-out: DOR Agonist %Emax ± SEM.
In assay [2] the target is human κ-opioid receptor (OPRK1) (Homo sapiens, UniProt P41145). The conditions noted are these: for KOR antagonist activity (in words): cAMP assay.
Assay [3] has as its target T1, human δ-opioid receptor (OPRD1). Description: cell-based.
Assay [4] shares this target. As to conditions: for DOR Antagonist %Imax ± SEM: versus EC50 of SNC80, Imax normalized to naltrexone.
Assay [5] has the same target. The conditions noted are these: cAMP assay. (cAMP levels reflect the balance of adenylyl cyclase and phosphodiesterase activity.)

UniProt P41145, sequence (P41145 whole entry): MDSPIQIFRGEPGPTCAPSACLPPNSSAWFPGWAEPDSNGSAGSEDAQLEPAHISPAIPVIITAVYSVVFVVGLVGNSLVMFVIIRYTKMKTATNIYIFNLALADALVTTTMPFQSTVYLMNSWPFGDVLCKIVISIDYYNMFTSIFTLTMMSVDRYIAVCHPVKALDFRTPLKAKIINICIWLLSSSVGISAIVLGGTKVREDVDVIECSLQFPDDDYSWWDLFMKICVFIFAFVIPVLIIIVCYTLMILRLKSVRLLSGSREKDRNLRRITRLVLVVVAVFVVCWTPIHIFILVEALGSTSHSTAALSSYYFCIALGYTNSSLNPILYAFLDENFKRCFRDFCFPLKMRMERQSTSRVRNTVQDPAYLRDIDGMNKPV
T1 sequence (P41143 whole entry): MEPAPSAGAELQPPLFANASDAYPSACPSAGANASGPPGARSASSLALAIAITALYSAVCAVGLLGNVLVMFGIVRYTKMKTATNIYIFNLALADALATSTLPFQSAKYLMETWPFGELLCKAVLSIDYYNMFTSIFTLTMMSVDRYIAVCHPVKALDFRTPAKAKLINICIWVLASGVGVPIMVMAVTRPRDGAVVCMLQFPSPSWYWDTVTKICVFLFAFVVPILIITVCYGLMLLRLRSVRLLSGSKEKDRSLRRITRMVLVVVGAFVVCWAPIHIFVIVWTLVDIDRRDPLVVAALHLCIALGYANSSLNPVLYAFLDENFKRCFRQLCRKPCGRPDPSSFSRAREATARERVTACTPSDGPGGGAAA

Take `CC[C@H]1[C@@H]2CCC[C@@]1(c1cccc(O)c1)CCN2CCc1ccccc1` [compound 15, 3-((1S,5R,9R)-9-Ethyl-2-phenethyl-2-azabicyclo[3.3.1]nonan-5-yl)phenol]: in assay [1], the EC50 (usually the midpoint of the concentration-response curve) is greater than 10000 nM. Also, the IC50 (in general, the concentration needed to halve the response being measured) in assay [2] was determined as 11 ± 6 nM; in assay [3], 75 ± 30 nM. In addition, the “DOR Antagonist %Imax ± SEM” value in assay [4] was 157 ± 11%.

The molecule `CCC[C@H]1[C@@H]2CCC[C@@]1(c1cccc(O)c1)CCN2CCc1ccccc1` [compound 16] registered a concentration for a half-maximal effect (EC50) in assay [1] greater than 10000 nM. Also, the IC50 worked out at 12 ± 5 nM in assay [2] and 84 ± 33 nM in assay [3]. For the same molecule, the “DOR Antagonist %Imax ± SEM” value in assay [4] is recorded as 96 ± 4%.

On to `CCCC[C@H]1[C@@H]2CCC[C@@]1(c1cccc(O)c1)CCN2CCc1ccccc1` [compound 17, 3-((1S,5R,9R)-9-Butyl-2-phenethyl-2-azabicyclo[3.3.1]nonan-5-yl)phenol], for which, in assay [1], the EC50 is greater than 10000 nM. Besides, the IC50 in assay [2] is 5.2 ± 0.6 nM; in assay [3], 30 ± 9 nM. Also, the “DOR Antagonist %Imax ± SEM” value in assay [4] is given as 125 ± 8%.

With `CC[C@@H]1[C@@H]2CCC[C@@]1(c1cccc(O)c1)CCN2CCc1ccccc1` [compound 18, 3-((1S,5R,9S)-9-Ethyl-2-phenethyl-2-azabicyclo[3.3.1]nonan-5-yl)phenol], in assay [1], the concentration giving a half-maximal response (EC50) worked out at 426 ± 148 nM and the maximal response (Emax) (usually the maximal effect, on the per cent scale that the assay sets) is 69%.

For `CCC[C@@H]1[C@@H]2CCC[C@@]1(c1cccc(O)c1)CCN2CCc1ccccc1` [compound 19, 3-((1S,5R,9S)-2-Phenethyl-9-propyl-2-azabicyclo[3.3.1]nonan-5-yl)phenol], the half-maximal effective concentration (EC50) in assay [1] is greater than 10000 nM. In assay [3], this molecule had an IC50 of 990 ± 389 nM. The “DOR Antagonist %Imax ± SEM” value in assay [4] came to 112± 10%.

As to `CCCC[C@@H]1[C@@H]2CCC[C@@]1(c1cccc(O)c1)CCN2CCc1ccccc1` [compound 20, 3-((1S,5R,9S)-9-Butyl-2-phenethyl-2-azabicyclo[3.3.1]nonan-5-yl)phenol], the EC50 in assay [1] was greater than 10000 nM. The molecule further returned an IC50 in assay [3] of 2080 ± 1060 nM. Besides, the “DOR Antagonist %Imax ± SEM” value in assay [4] amounted to 122 ± 21%.

For the molecule `CC[C@H]1[C@H]2CCC[C@]1(c1cccc(O)c1)CCN2CCc1ccccc1` [compound 35, 3-((1R,5S,9R)-9-Ethyl-2-phenethyl-2-azabicyclo[3.3.1]nonan-5-yl)phenol], in assay [1], the midpoint of the response, the EC50, lay at 2.9 ± 0.9 nM and the Emax turned out to be 29 ± 20%. The “DOR agonist activity (in words)” value in assay [5] was “low efficacy DOR partial agonist”. In addition, in assay [2], the IC50 worked out at 112 ± 57 nM and the “KOR antagonist activity (in words)” value is “weak antagonist activity at KOR”. For the same molecule, it took 42 ± 9 nM to reach half-maximal inhibition in assay [3] (IC50). Moreover, in assay [4], the “DOR Antagonist %Imax ± SEM” value was determined as 110 ± 5%.

In assay [1], `CCC[C@H]1[C@H]2CCC[C@]1(c1cccc(O)c1)CCN2CCc1ccccc1` [compound 36, 3-((1R,5S,9R)-2-Phenethyl-9-propyl-2-azabicyclo[3.3.1]nonan-5-yl)phenol] had an EC50 greater than 10000 nM. The IC50 in assay [2] was 204 ± 77 nM; in assay [3], 162 ± 47 nM. In assay [4], the “DOR Antagonist %Imax ± SEM” value was 147± 28%.

In the case of `CCCC[C@H]1[C@H]2CCC[C@]1(c1cccc(O)c1)CCN2CCc1ccccc1` [compound 37, 3-((1R,5S,9R)-9-Butyl-2-phenethyl-2-azabicyclo[3.3.1]nonan-5-yl)phenol], the EC50 in assay [1] is greater than 10000 nM. Moreover, the 50% inhibitory concentration (IC50) in assay [2] was greater than 10000 nM; in assay [3] it was 107 ± 27 nM. Moreover, in assay [4], the “DOR Antagonist %Imax ± SEM” value was found to be 159 ± 13%.

With `CC[C@@H]1[C@H]2CCC[C@]1(c1cccc(O)c1)CCN2CCc1ccccc1` [compound 38, 3-((1R,5S,9S)-9-Ethyl-2-phenethyl-2-azabicyclo[3.3.1]nonan-5-yl)phenol], the EC50 in assay [1] is greater than 10000 nM. The IC50 in assay [2] is 48 ± 21 nM; in assay [3], 435 ± 132 nM. Moreover, the “DOR Antagonist %Imax ± SEM” value in assay [4] worked out at 149 ± 38%.

`CCC[C@@H]1[C@H]2CCC[C@]1(c1cccc(O)c1)CCN2CCc1ccccc1` [compound 39, 3-((1R,5S,9S)-2-Phenethyl-9-propyl-2-azabicyclo[3.3.1]nonan-5-yl)phenol] gave an EC50 in assay [1] greater than 10000 nM. For the same molecule, the half-inhibitory concentration (IC50) came out at 54 ± 26 nM in assay [2] and 368 ± 54 nM in assay [3]. Further, in assay [4], the “DOR Antagonist %Imax ± SEM” value amounted to 170± 6%.

With `CCCC[C@@H]1[C@H]2CCC[C@]1(c1cccc(O)c1)CCN2CCc1ccccc1` [compound 40, 3-((1R,5S,9S)-9-Butyl-2-phenethyl-2-azabicyclo[3.3.1]nonan-5-yl)phenol], the half-maximal effective concentration (EC50) in assay [1] was greater than 10000 nM. Further, the figures for the IC50 in assay [2] and in assay [3] were 604 ± 234 nM and 681 ± 73 nM, respectively. The “DOR Antagonist %Imax ± SEM” value in assay [4] was 178 ± 15%.

As for `C[C@@H]1[C@@H]2CCC[C@@]1(c1cccc(O)c1)CCN2CCc1ccccc1` [compound 43, 9S-methyl-1S,5R-5-phenylmorphan], in assay [1], the EC50 amounted to 699 ± 388 nM and the Emax was 51%. Inhibition in assay [2] was half-maximal at 369 ± 187 nM (IC50).

Turning to `C[C@H]1[C@@H]2CCC[C@@]1(c1cccc(O)c1)CCN2CCc1ccccc1` [compound 48, 3-((1S,5R,9R)-9-Methyl-2-phenethyl-2-azabicyclo[3.3.1]nonan-5-yl)phenol], the EC50 in assay [1] was greater than 10000 nM. In assay [2], the midpoint of inhibition, the IC50, lay at 2.6 ± 0.5 nM and the “KOR antagonist activity (in words)” value is reported as “about as potent as the reference kappa ligand, nor-BNI”. Moreover, the IC50 in assay [3] came out at 194 ± 48 nM. In addition, the “DOR antagonist activity (in words)” value in assay [4] (cAMP assay) is recorded as “very little DOR antagonist activity”. In addition, in assay [4], the “DOR Antagonist %Imax ± SEM” value is recorded as 144 ± 5%.

In assay [1], `C[C@@H]1[C@H]2CCC[C@]1(c1cccc(O)c1)CCN2CCc1ccccc1` [compound 56, 3-((1R,5S,9S)-9-Methyl-2-phenethyl-2-azabicyclo[3.3.1]nonan-5-yl)phenol] showed an EC50 greater than 10000 nM. Further, the half-maximal inhibitory concentration (IC50) in assay [2] is 14 ± 7 nM; in assay [3], 489 ± 147 nM. Further, in assay [4], the “DOR Antagonist %Imax ± SEM” value came out at 196 ± 23%.
